Assay results taken from a compilation of properties of binary mixtures (doi:10.1007/s10953-019-00842-w).
The densities may have been worked out from excess volumes.

Assay: xn = mol fraction of the nth substance listed
Settings: 101 kPa

## CC[n+]1ccn(C)c1.O=S(=O)([O-])C(F)(F)F + CC1COC(=O)O1
288.15 K, x1 = 0.0999
  mass density: 1250.6 kg/m3
288.15 K, x1 = 0.1999
  mass density: 1281.7 kg/m3
288.15 K, x1 = 0.601
  mass density: 1359.1 kg/m3
288.15 K, x1 = 0.6987
  mass density: 1369.9 kg/m3
288.15 K, x1 = 0.8004
  mass density: 1379.1 kg/m3
288.15 K, x1 = 0.8998
  mass density: 1386.3 kg/m3
288.15 K, x1 = 1
  mass density: 1391.2 kg/m3
293.15 K, x1 = 0.1999
  mass density: 1276.8 kg/m3
293.15 K, x1 = 0.3005
  mass density: 1303.3 kg/m3
293.15 K, x1 = 0.3998
  mass density: 1323.4 kg/m3
293.15 K, x1 = 0.5001
  mass density: 1341.1 kg/m3
293.15 K, x1 = 0.601
  mass density: 1354.5 kg/m3
293.15 K, x1 = 0.6987
  mass density: 1365.5 kg/m3
293.15 K, x1 = 0.8998
  mass density: 1382.1 kg/m3
293.15 K, x1 = 1
  mass density: 1387.1 kg/m3
298.15 K, x1 = 0.0999
  mass density: 1240.4 kg/m3
298.15 K, x1 = 0.1999
  mass density: 1271.8 kg/m3
298.15 K, x1 = 0.3005
  mass density: 1298.5 kg/m3
298.15 K, x1 = 0.3998
  mass density: 1318.2 kg/m3
298.15 K, x1 = 0.5001
  mass density: 1336.5 kg/m3
298.15 K, x1 = 0.601
  mass density: 1350 kg/m3
298.15 K, x1 = 0.6987
  mass density: 1361 kg/m3
303.15 K, x1 = 0.1999
  mass density: 1266.9 kg/m3
303.15 K, x1 = 0.3005
  mass density: 1293.7 kg/m3
303.15 K, x1 = 0.5001
  mass density: 1331.9 kg/m3
303.15 K, x1 = 0.601
  mass density: 1345.5 kg/m3
303.15 K, x1 = 0.8004
  mass density: 1366 kg/m3
303.15 K, x1 = 0.8998
  mass density: 1373.7 kg/m3
308.15 K, x1 = 0.0999
  mass density: 1230.2 kg/m3
308.15 K, x1 = 0.1999
  mass density: 1262 kg/m3
308.15 K, x1 = 0.3005
  mass density: 1288.9 kg/m3
308.15 K, x1 = 0.3998
  mass density: 1309.1 kg/m3
308.15 K, x1 = 0.601
  mass density: 1341 kg/m3
308.15 K, x1 = 0.6987
  mass density: 1352.2 kg/m3
308.15 K, x1 = 0.8004
  mass density: 1361.7 kg/m3
308.15 K, x1 = 0.8998
  mass density: 1369.5 kg/m3
308.15 K, x1 = 1
  mass density: 1374.5 kg/m3
313.15 K, x1 = 0.0999
  mass density: 1225.2 kg/m3
313.15 K, x1 = 0.1999
  mass density: 1257.1 kg/m3
313.15 K, x1 = 0.3005
  mass density: 1284.1 kg/m3
313.15 K, x1 = 0.3998
  mass density: 1304.3 kg/m3
313.15 K, x1 = 0.5001
  mass density: 1322.7 kg/m3
313.15 K, x1 = 0.601
  mass density: 1336.6 kg/m3
313.15 K, x1 = 0.6987
  mass density: 1347.8 kg/m3
313.15 K, x1 = 0.8004
  mass density: 1357.4 kg/m3
318.15 K, x1 = 0.0999
  mass density: 1220.1 kg/m3
318.15 K, x1 = 0.601
  mass density: 1332.1 kg/m3
318.15 K, x1 = 0.6987
  mass density: 1343.4 kg/m3
318.15 K, x1 = 0.8004
  mass density: 1353.1 kg/m3
318.15 K, x1 = 1
  mass density: 1366.1 kg/m3
323.15 K, x1 = 0.0999
  mass density: 1215.1 kg/m3
323.15 K, x1 = 0.1999
  mass density: 1247.3 kg/m3
323.15 K, x1 = 0.3005
  mass density: 1274.6 kg/m3
323.15 K, x1 = 0.3998
  mass density: 1294.9 kg/m3
323.15 K, x1 = 0.5001
  mass density: 1313.7 kg/m3
323.15 K, x1 = 0.601
  mass density: 1327.7 kg/m3
323.15 K, x1 = 0.8004
  mass density: 1348.8 kg/m3
323.15 K, x1 = 1
  mass density: 1362 kg/m3
328.15 K, x1 = 0.0999
  mass density: 1210 kg/m3
328.15 K, x1 = 0.6987
  mass density: 1334.7 kg/m3
328.15 K, x1 = 0.8004
  mass density: 1344.6 kg/m3
328.15 K, x1 = 0.8998
  mass density: 1352.8 kg/m3
328.15 K, x1 = 1
  mass density: 1357.9 kg/m3
333.15 K, x1 = 0.0999
  mass density: 1205 kg/m3
333.15 K, x1 = 0.1999
  mass density: 1237.6 kg/m3
333.15 K, x1 = 0.3998
  mass density: 1285.5 kg/m3
333.15 K, x1 = 0.5001
  mass density: 1304.7 kg/m3
333.15 K, x1 = 0.601
  mass density: 1318.9 kg/m3
333.15 K, x1 = 0.8998
  mass density: 1348.6 kg/m3
333.15 K, x1 = 1
  mass density: 1353.7 kg/m3
338.15 K, x1 = 0.0999
  mass density: 1200 kg/m3
338.15 K, x1 = 0.1999
  mass density: 1232.8 kg/m3
338.15 K, x1 = 0.3005
  mass density: 1260.5 kg/m3
338.15 K, x1 = 0.3998
  mass density: 1280.8 kg/m3
338.15 K, x1 = 0.5001
  mass density: 1300.2 kg/m3
338.15 K, x1 = 0.6987
  mass density: 1326.1 kg/m3
338.15 K, x1 = 0.8998
  mass density: 1344.6 kg/m3
338.15 K, x1 = 1
  mass density: 1349.6 kg/m3
343.15 K, x1 = 0.1999
  mass density: 1228 kg/m3
343.15 K, x1 = 0.3005
  mass density: 1255.9 kg/m3
343.15 K, x1 = 0.5001
  mass density: 1295.8 kg/m3
343.15 K, x1 = 0.601
  mass density: 1310.3 kg/m3
343.15 K, x1 = 0.6987
  mass density: 1321.8 kg/m3
343.15 K, x1 = 0.8004
  mass density: 1331.9 kg/m3
343.15 K, x1 = 0.8998
  mass density: 1340.6 kg/m3
343.15 K, x1 = 1
  mass density: 1345.6 kg/m3
348.15 K, x1 = 0.0999
  mass density: 1190 kg/m3
348.15 K, x1 = 0.1999
  mass density: 1223.2 kg/m3
348.15 K, x1 = 0.3005
  mass density: 1251.2 kg/m3
348.15 K, x1 = 0.3998
  mass density: 1273.7 kg/m3
348.15 K, x1 = 0.5001
  mass density: 1291.3 kg/m3
348.15 K, x1 = 0.601
  mass density: 1306.2 kg/m3
348.15 K, x1 = 0.6987
  mass density: 1317.6 kg/m3
348.15 K, x1 = 0.8004
  mass density: 1327.7 kg/m3
348.15 K, x1 = 0.8998
  mass density: 1336.1 kg/m3
348.15 K, x1 = 1
  mass density: 1341.5 kg/m3
353.15 K, x1 = 0.0999
  mass density: 1185 kg/m3
353.15 K, x1 = 0.1999
  mass density: 1218.3 kg/m3
353.15 K, x1 = 0.3998
  mass density: 1269.1 kg/m3
353.15 K, x1 = 0.5001
  mass density: 1286.9 kg/m3
353.15 K, x1 = 0.601
  mass density: 1301.5 kg/m3
353.15 K, x1 = 0.6987
  mass density: 1313.3 kg/m3
353.15 K, x1 = 0.8004
  mass density: 1323.5 kg/m3

## CC1COC(=O)O1 (stereo not given) + CC[n+]1ccn(C)c1.O=S(=O)([O-])C(F)(F)F
288.15 K, x2 = 0
  mass density: 1210.2 kg/m3
298.15 K, x2 = 0
  mass density: 1199.1 kg/m3
303.15 K, x2 = 0
  mass density: 1194 kg/m3
308.15 K, x2 = 0
  mass density: 1188.6 kg/m3
313.15 K, x2 = 0
  mass density: 1183.4 kg/m3
318.15 K, x2 = 0
  mass density: 1177.9 kg/m3
323.15 K, x2 = 0
  mass density: 1172.6 kg/m3
328.15 K, x2 = 0
  mass density: 1167.4 kg/m3
333.15 K, x2 = 0
  mass density: 1162.1 kg/m3
338.15 K, x2 = 0
  mass density: 1156.8 kg/m3
348.15 K, x2 = 0
  mass density: 1146.2 kg/m3
353.15 K, x2 = 0
  mass density: 1141 kg/m3
